For one test, the system named is HSkMC. Put plainly: cytotoxicity call (relative viability < 0.9). To be noted: 10 µM.
For the next test, the system named is HepG2. Put plainly: cytotoxicity call (relative viability < 0.9). To be noted: 10 µM.
The test system of a further test is S. aureus RN4220. The experiment in a line: growth inhibition call (relative growth <= 0.2). To be noted: 50 µM.

The list shows a part of the results.

As for `C[C@@]12C(=O)OC(=O)[C@]1(C)[C@H]1CC[C@@H]2O1`, the cytotoxicity call in the test with HSkMC and in the test with HepG2 was “active” each time. The growth inhibition call in the test with S. aureus RN4220 is “inactive”.

As for `S=C=Nc1cccc(C2(N3CCCCC3)CCCCC2)c1`, in the test with HSkMC, the cytotoxicity call is “inactive”. Further, the cytotoxicity call in the test with HepG2 is “active”. In addition, the growth inhibition call in the test on S. aureus RN4220 is “inactive”.

As for `CC(=O)N[C@H]1CCSC1=O`, the cytotoxicity call in the test with HSkMC and in the test with HepG2 was “inactive” each time. The growth inhibition call in the test with S. aureus RN4220 was “inactive”.

With `CC1=C(O)C(=O)C=C2C1=CC=C1C2(C)CCC2(C)C3CC(C)(C(=O)O)CCC3(C)CCC12C` (stereo not given), the cytotoxicity call in the test on HSkMC and in the test with HepG2 was “active” throughout. In the test with S. aureus RN4220, the growth inhibition call is “inactive”.

As to `CC(C)(C#N)O[C@@H]1O[C@H](CO)[C@@H](O)[C@H](O)[C@H]1O`, the cytotoxicity call in the test with HSkMC and with HepG2 was “inactive” in each case. For the same compound, the growth inhibition call in the test with S. aureus RN4220 is “inactive”.

In the case of `N#C[C@H](O[C@@H]1O[C@H](CO[C@@H]2O[C@H](CO)[C@@H](O)[C@H](O)[C@H]2O)[C@@H](O)[C@H](O)[C@H]1O)c1ccccc1`, the cytotoxicity call with HSkMC and with HepG2 was “inactive” in each case. In the test on S. aureus RN4220, the growth inhibition call is “inactive”.

On to `Oc1ccc(Cl)cc1`, for which the cytotoxicity call in the test with HSkMC and in the test with HepG2 was “inactive” throughout. Further, the growth inhibition call with S. aureus RN4220 was “inactive”.

For `COc1ccc(OC(=O)N(C)C[C@@H]2OCc3ccccc3-c3c(n(C)c4ccccc34)C(=O)N([C@H](C)CO)C[C@@H]2C)cc1`, the cytotoxicity call in the test with HSkMC and in the test on HepG2 was “inactive” in each case. For the same compound, in the test with S. aureus RN4220, the growth inhibition call is “inactive”.

As for `O=C(O)C(Cl)Cl.[NaH]`, the cytotoxicity call in the test with HSkMC and in the test on HepG2 was “inactive” in each case. For the same compound, the growth inhibition call in the test on S. aureus RN4220 is “inactive”.

On to `C[C@@H]1O[C@@H](OC(=O)Cc2ccccc2)[C@H](O)[C@H](O)[C@H]1O`, for which the cytotoxicity call with HSkMC and in the test with HepG2 was “inactive” each time. The growth inhibition call in the test on S. aureus RN4220 was “inactive”.

For `CC(C)(C)NCC(O)c1ccccc1Cl.Cl` (stereo not given), the cytotoxicity call with HSkMC and with HepG2 was “inactive” each time. Besides, the growth inhibition call with S. aureus RN4220 is “inactive”.

For `C[N+]1(C)CCCC(OC(=O)C(O)(c2ccccc2)c2ccccc2)C1.[Br-]` (stereo not given), the cytotoxicity call in the test with HSkMC and in the test with HepG2 was “inactive” each time. The growth inhibition call with S. aureus RN4220 was “inactive”.

For `CC(=O)[O][Hg][c]1ccccc1`, the cytotoxicity call with HSkMC and in the test on HepG2 was “active” in each case. The growth inhibition call in the test with S. aureus RN4220 is “inactive”.

In the case of `O=C1C[C@@H](c2ccncc2)C2(CCNCC2)N1`, the cytotoxicity call in the test with HSkMC and with HepG2 was “inactive” each time. The growth inhibition call in the test with S. aureus RN4220 is “inactive”.

On to `CCC(C)(C)O`, for which the cytotoxicity call in the test with HSkMC and in the test with HepG2 was “inactive” in each case. Moreover, the growth inhibition call in the test with S. aureus RN4220 was “inactive”.

On to `CN(C)C(=S)SSC(=S)N(C)C`, for which the cytotoxicity call in the test with HSkMC was “inactive”. Moreover, in the test with HepG2, the cytotoxicity call is “active”. In addition, the growth inhibition call in the test on S. aureus RN4220 was “active”.

On to `C[C@H]1CN(C)[C@@H](C)C[C@@H]1n1[nH]c(=O)cc1N`, for which the cytotoxicity call in the test on HSkMC and in the test on HepG2 was “inactive” in each case. In addition, the growth inhibition call with S. aureus RN4220 was “inactive”.

Regarding `CN1C2CCC1CC(O)C2` (stereo not given), the cytotoxicity call in the test with HSkMC and in the test with HepG2 was “inactive” each time. For the same compound, the growth inhibition call with S. aureus RN4220 is “inactive”.

For `O=C1CCCC2C3CCCN4CCCC(CN12)C34` (stereo not given), the cytotoxicity call in the test with HSkMC and in the test on HepG2 was “inactive” throughout. The growth inhibition call with S. aureus RN4220 was “inactive”.

Take `CC(=O)O[C@H]1C(=O)[C@]2(C)[C@@H](O)C[C@H]3OC[C@@]3(OC(C)=O)[C@@H]2[C@H](OC(=O)c2ccccc2)[C@]2(O)C[C@H](O)C(C)=C1C2(C)C`: in the test on HSkMC, the cytotoxicity call was “inactive”. For the same compound, the cytotoxicity call with HepG2 was “active”. The growth inhibition call in the test on S. aureus RN4220 is “inactive”.

As for `COc1ccc2c3c([nH]c2c1)C(C)=NCC3`, the cytotoxicity call with HSkMC and in the test with HepG2 was “inactive” each time. Further, the growth inhibition call in the test on S. aureus RN4220 was “inactive”.

As to `Nc1ccccc1N1CCNCC1`, the cytotoxicity call with HSkMC and in the test on HepG2 was “inactive” in each case. Besides, the growth inhibition call in the test with S. aureus RN4220 was “inactive”.

As for `COC(=O)C[C@H]1CC[C@@H]2NC[C@@H](O)COC[C@H]2O1`, the cytotoxicity call in the test on HSkMC and with HepG2 was “inactive” each time. Further, the growth inhibition call in the test on S. aureus RN4220 is “inactive”.

In the case of `Cl.NNCc1ccccc1`, the cytotoxicity call with HSkMC and in the test on HepG2 was “inactive” throughout. For the same compound, in the test with S. aureus RN4220, the growth inhibition call is “inactive”.

Consider `Cc1ncc(CNC(=O)N(CCCl)[NH2+][O-])c(N)n1`, for which the cytotoxicity call in the test with HSkMC and with HepG2 was “inactive” in each case. Also, the growth inhibition call in the test on S. aureus RN4220 is “inactive”.

On to `C#CC(C)(O)CC` (stereo not given), for which the cytotoxicity call with HSkMC and in the test on HepG2 was “inactive” throughout. In addition, the growth inhibition call in the test with S. aureus RN4220 was “inactive”.

With `O=C1NCN(c2ccccc2)C12CCNCC2`, the cytotoxicity call in the test with HSkMC and in the test on HepG2 was “inactive” in each case. For the same compound, the growth inhibition call with S. aureus RN4220 is “inactive”.

Take `COP(=O)(OC)C(O)C(Cl)(Cl)Cl` (stereo not given): the cytotoxicity call in the test with HSkMC and with HepG2 was “inactive” each time. Also, the growth inhibition call in the test on S. aureus RN4220 is “inactive”.

Take `CI.O=C(COc1ccc(Cl)cc1Cl)OC[C@H]1CCCN2CCCC[C@@H]12`: the cytotoxicity call in the test with HSkMC and with HepG2 was “inactive” in each case. In the test with S. aureus RN4220, the growth inhibition call was “inactive”.

`Oc1ccc(N2CCNCC2)cc1`: the cytotoxicity call in the test on HSkMC and in the test on HepG2 was “inactive” each time. The growth inhibition call in the test with S. aureus RN4220 was “inactive”.

For `Nc1nc(N)nc(NC2CC2)n1`, the cytotoxicity call in the test on HSkMC and with HepG2 was “inactive” in each case. Moreover, in the test on S. aureus RN4220, the growth inhibition call is “inactive”.

As to `COc1ccc(CCN)cc1O`, the cytotoxicity call in the test with HSkMC and with HepG2 was “inactive” throughout. Also, the growth inhibition call in the test on S. aureus RN4220 is “inactive”.

As for `CC(C)n1cnnc1CCN`, the cytotoxicity call with HSkMC and in the test on HepG2 was “inactive” each time. Moreover, the growth inhibition call in the test on S. aureus RN4220 is “inactive”.

As for `Nc1c[n+](CCc2ccccc2)no1`, the cytotoxicity call in the test on HSkMC and in the test on HepG2 was “inactive” in each case. The growth inhibition call with S. aureus RN4220 is “inactive”.

Regarding `CC(C)(C)c1o[nH]c(=O)c1C[C@@H](N)C(=O)O`, the cytotoxicity call in the test on HSkMC (human skeletal muscle cells) and in the test with HepG2 was “inactive” each time. Further, the growth inhibition call with S. aureus RN4220 is “inactive”.
